Measurements published in PubChem BioAssay AID720707 (National Center for Advancing Translational Sciences (NCATS), 2013).
Hit rate of the full screen: of about 360,000 compounds, about 270 (0.075%) were called active. The shares of active, inactive and inconclusive entries below differ from those in the screen. Calls come from the whole dose curve; as a rule, active = well fitted activation curve with a large enough effect; inconclusive = small, poorly fitted or top-dose-only effect; inactive = no such curve, though single readings can be large or run the other way. No potency is given beside an inconclusive call; the fits are too rough.

What follows are compounds tested against Rap guanine nucleotide exchange factor 3 (Homo sapiens) (UniProt O95398) (assay: qHTS for Agonist of cAMP-regulated guanine nucleotide exchange factor 3 (EPAC1): primary screen). Conditions: biochemical assay; activation: at 154 µM (top of the series), 100% = response to 6.5 mM cAMP.
Sequence of UniProt O95398 (O95398 whole entry, looked up): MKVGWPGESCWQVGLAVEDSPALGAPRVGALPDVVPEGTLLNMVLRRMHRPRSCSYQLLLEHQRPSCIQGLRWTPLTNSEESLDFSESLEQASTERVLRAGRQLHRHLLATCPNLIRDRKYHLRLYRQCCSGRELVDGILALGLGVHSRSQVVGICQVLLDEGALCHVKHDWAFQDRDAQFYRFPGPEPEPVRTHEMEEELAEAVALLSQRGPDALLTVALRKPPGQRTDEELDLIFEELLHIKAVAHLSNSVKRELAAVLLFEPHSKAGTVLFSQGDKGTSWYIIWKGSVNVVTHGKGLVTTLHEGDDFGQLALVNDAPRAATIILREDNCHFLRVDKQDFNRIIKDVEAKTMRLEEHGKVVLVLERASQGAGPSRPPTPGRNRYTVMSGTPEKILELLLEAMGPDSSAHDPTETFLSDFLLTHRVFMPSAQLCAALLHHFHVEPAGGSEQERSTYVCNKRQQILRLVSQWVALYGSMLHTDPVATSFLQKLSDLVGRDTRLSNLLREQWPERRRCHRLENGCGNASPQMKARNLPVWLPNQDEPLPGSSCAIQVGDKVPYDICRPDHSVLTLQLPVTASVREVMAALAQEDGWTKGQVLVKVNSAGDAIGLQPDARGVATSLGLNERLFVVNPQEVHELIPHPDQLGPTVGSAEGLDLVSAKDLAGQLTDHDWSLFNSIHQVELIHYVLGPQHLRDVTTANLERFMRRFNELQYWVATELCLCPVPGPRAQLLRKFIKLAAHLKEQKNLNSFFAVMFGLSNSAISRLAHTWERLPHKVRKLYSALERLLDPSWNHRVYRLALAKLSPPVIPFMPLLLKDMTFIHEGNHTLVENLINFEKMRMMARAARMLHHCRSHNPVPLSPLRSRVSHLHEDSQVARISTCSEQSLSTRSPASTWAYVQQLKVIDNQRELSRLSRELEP
Method in brief: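 Multi-concentration qHTS readout: loss of Rap1B-bound BODIPY-GDP fluorescence driven by 100 nM EPAC1 with excess GDP (50 uM), monitored kinetically at room temperature; agonist response expressed relative to 6.5 mM cAMP.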
Note: nearly all actives have a fitted effect of over 60% in size.
Potency is the fitted concentration of half-maximal effect; tags give direction and shape of the fitted curve.

Compound	Potency	activation
O=[N+]([O-])/C=C/c1cn(Cc2ccc(Cl)cc2)c2ccccc12	inconclusive [activator, partial curve]	–
COc1ccc(C(=O)/C=C(\C)Nc2ccc3c(c2)OCO3)cc1	–	inactive: 4.44%
CCCCN1C(=O)/C(=C/C=C2/CC(C)(C)CN2C)SC1=S	inconclusive [activator, single point]	–
O=C(NC1CCCC1)c1cccc2c1C(=O)c1ccc(N3CCCCC3)cc1S2(=O)=O	inconclusive [activator, partial curve]	–
CN=c1scc(-c2ccc([N+](=O)[O-])cc2)n1/N=C/c1ccco1	–	inactive: 2.89%
COc1ccc(OC)c(S(=O)(=O)N2CCC3(CC2)CC(=O)c2ccccc2O3)c1	inconclusive [activator, single point]	–
CCOC(=O)c1ccc(NC(=O)CSc2nc(N)c(NC(=O)c3ccc(Br)o3)c(=O)[nH]2)cc1	inconclusive [activator, partial curve]	–
COc1ccc(S(=O)(=O)NCc2cccnc2)cc1NC(=O)c1ccccc1C	inconclusive [activator, single point]	–
COc1ccc(C(=O)C[n+]2cn(C(F)F)c3ccccc32)c(F)c1	–	inactive: 7.78%
CC(C)c1ccc(S(=O)(=O)N2CCN(C(=O)C3CC3C)CC2)cc1 (centres undefined)	inconclusive [activator, partial curve]	–
Cc1nn(C)c(Nc2ccc(Br)cc2)c1Br	–	inactive: -10.1%
Cc1c(Cl)cccc1N=C1SCCN1C(=O)CN1C(=O)NC2(CCCC2)C1=O	inconclusive [activator, full curve]	–
Cc1ccc(N(CC(O)Cn2c3ccccc3c3ccccc32)S(C)(=O)=O)cc1 (centres undefined)	inconclusive [activator, partial curve]	–
O=C(c1ccc([N+](=O)[O-])o1)N1CCN(c2nc3c(Cl)cccc3s2)CC1	inconclusive [activator, partial curve, poor fit]	–
N#Cc1ccc(/C=C\c2nccc3c2[nH]c2ccccc23)cc1	inconclusive [activator, single point]	–
N#C/C(=C\c1ccc(N2CCCCC2)o1)C(=O)Nc1cccc(Br)c1	inconclusive [activator, single point]	–
CCOC(=O)c1c(C2COc3ccccc3O2)csc1N (centres undefined)	inconclusive [activator, full curve]	–
O=C(NCCC(=O)N1CCN(S(=O)(=O)c2ccccc2)CC1)c1ccc(Br)cc1	inconclusive [activator, single point]	–
c1coc(CNc2nc3ccccc3s2)c1	–	inactive: -4.29%
O=C(NCc1cccnc1)c1cccn2c(=O)c3sccc3nc12	–	inactive: 1.36%
N=c1c(S(=O)(=O)c2ccccc2)cc2c(=O)n3ccccc3nc2n1CCCN1CCOCC1	inconclusive [activator, single point]	–
Cc1cc(C)c(S(=O)(=O)/N=C2\C=C(Nc3ccc(C(=O)O)cc3)C(=O)c3ccccc32)c(C)c1	active: 100 µM	–
Cn1cc(C(=O)N/N=C/C2=C(N3CCOCC3)C(=C\c3ccccc3)/CC2)ccc1=O	inconclusive [activator, partial curve]	–

Compound	Potency	activation
COc1cccc2c1C(=O)c1c(O)c3c(c(O)c1C2=O)C[C@@](O)(C(=O)CO)C[C@@H]3O[C@H]1C[C@H](N)[C@H](O)[C@H](C)O1	inconclusive [activator, partial curve]	–
CC(C)(C)c1ccc(C(=O)NCCC(=O)Nc2ccc3c(c2)OCCO3)cc1	inconclusive [activator, single point]	–
O=C(O)c1cccc(NC2=C(N3CCOCC3)C(=O)c3ccccc3C2=O)c1	–	inactive: 1.24%
NNc1nc2sc3c(c2c(=O)[nH]1)CCc1ccccc1-3	–	inactive: -2.8%
CCC(=O)N(CCc1ccccc1)Cc1cc2cccc(C)c2[nH]c1=O	–	inactive: -9.57%
N#C/C(=C/c1ccc(N2CCCCC2)o1)C(=O)NCCc1c[nH]c2ccccc12	inconclusive [activator, single point]	–
CCOc1cc(/C=C/c2cc(C(=O)O)c3ccccc3n2)ccc1OC	inconclusive [activator, partial curve]	–
CCc1ccc(NC(=O)CSc2nnc(Cc3cccn3C)n2-c2ccc(OC)cc2)cc1	inconclusive [activator, single point]	–
CCn1cc(CNC(=O)C2CCC(=O)N(C3CCCCCC3)C2)cn1 (centres undefined)	–	inconclusive: 14.9% [activator]
CN(C)c1cccc(NC(=O)c2cccc3c(-c4ccc(F)c(F)c4)coc23)c1	–	inactive: -1.39%
C[C@H](CO)N1C[C@H](C)[C@@H](CN(C)Cc2ccc3c(c2)OCO3)Oc2cc(Br)ccc2S1(=O)=O	inconclusive [activator, partial curve, poor fit]	–
Cc1cc(C)c2sc(N(CCCN(C)C)C(=O)c3ccc(S(=O)(=O)N(C)C4CCCCC4)cc3)nc2c1	active: 44.7 µM	–
Cc1ccc(S(=O)(=O)NCCC(=O)N2CCC(Cc3ccccc3)CC2)cc1	inconclusive [activator, single point]	–
CCOC(=O)c1cccc(NC2c3ccccc3C(=O)N2Cc2ccco2)c1 (centres undefined)	–	inconclusive: 15.7% [activator]
C/C=C\C(=O)Nc1cccc(C2=NOC3(C2)C[C@@H](C(N)=O)N(C(=O)CCCCC)C3)c1 (some centres undefined)	–	inactive: -5.8%
CCc1c(C)sc(NC(=O)OC)c1C(=O)N1CCOCC1	–	inactive: -5.41%
Cc1ccc(C2C(C#N)=C(N)SC(N)=C2C#N)c(C)c1	inconclusive [activator, single point]	–
COC(=O)Nc1ccc(S(=O)(=O)N2c3ccccc3CCC2C)cc1 (centres undefined)	inconclusive [activator, partial curve]	–
CSCCC(NC(=O)c1ccc(Cl)cc1)C(=O)OCC(=O)N1CCCC1=O (centres undefined)	inconclusive [activator, full curve, poor fit]	–
O=C(c1ccc(C#Cc2ccccc2)o1)N1CCN(c2ccccn2)CC1	inconclusive [activator, partial curve]	–
CCCn1c(O)c(CN2CCCC(C)C2)c(C)c(C#N)c1=O (centres undefined)	inconclusive [activator, partial curve]	–
O=C1CN(S(=O)(=O)c2ccccc2)CCN1S(=O)(=O)c1ccccc1	–	inactive: 10.5%
CCc1nc2c(OCc3ccc(C(F)(F)F)cc3)cccn2c1N(C)C(=O)c1ccc(C)cc1	–	inactive: -31.1%

Compound	Potency	activation
Cn1cc(Cl)c(C(=O)N/N=C/c2ccc3c4c(cccc24)CC3)n1	–	inactive: -3.05%
CC(Oc1ccc(-c2nnco2)cc1)C(=O)N1CCOCC1 (centres undefined)	active: 31.6 µM	–
COc1ccc(N2CCN(C(=O)CNC(=O)c3ccc(Br)o3)CC2)cc1	inconclusive [activator, partial curve]	–
O/N=C(\c1ccc(Cl)cc1)c1cc2ccccc2o1	inconclusive [activator, single point]	–
O=C(O)c1ccc(N/N=C/c2c(F)cccc2Cl)cc1	–	inactive: -6.59%
CC1=C(C(=O)Nc2ccccc2)C(c2ccc(Cl)cc2)n2c(s/c(=C/c3cccc(OCC(=O)O)c3)c2=O)=N1 (centres undefined)	inconclusive [activator, single point]	–
CC1=C(C(=O)OC(C)C)C(c2ccc(Cl)cc2)n2c(sc(=Cc3ccc(OCC(=O)O)cc3)c2=O)=N1 (centres undefined)	inconclusive [activator, partial curve]	–
CC(=O)Nc1cccc(NC(=O)CSc2nc(=O)n(CCN3CCOCC3)c3c2CCCC3)c1	inconclusive [activator, single point]	–
COc1ccc(C(=O)c2ccc(OC)c(Br)c2)cc1Br	–	inactive: -3.2%
COc1cc(/C=C(\C#N)c2nc3ccccc3o2)ccc1O	inconclusive [activator, partial curve]	–
CC1C(c2ccccc2)N(C)C(c2ccccc2)CC1(O)c1ccccc1 (centres undefined)	inconclusive [activator, partial curve]	–
NC(=O)c1ccsc1NC(=O)CS(=O)(=O)c1ccc(F)cc1	inconclusive [activator, single point]	–
CCOC(=O)/C(=C/c1ccc(N2CCC(c3ccccc3)=N2)cc1)C(C)=O	inconclusive [activator, full curve, poor fit]	–
CCc1ccc(OCc2ccc(C(=O)O)o2)cc1	–	inactive: 6.6%
O=[N+]([O-])c1cccc(Cl)c1NCCNS(=O)(=O)c1ccccc1	–	inactive: 22.9%
CC(=O)N(C(C)=O)N1C(=O)c2cccc3c(N4CCOCC4)ccc(c23)C1=O	active: 112 µM	–
COc1cccc(COC(=O)CSCC(=O)Nc2cccc(C)c2)c1OC	inconclusive [activator, partial curve, poor fit]	–
O=C(NC1CCCCCCC1)c1cc(COc2ccc3ncccc3c2)on1	–	inactive: -6.27%
Cc1nnc(SC(C)C(=O)NC2CCCCC2)[nH]c1=O (centres undefined)	inconclusive [activator, single point]	–
COC(=O)C[C@H]1CC[C@H](NC(=O)Nc2ccccc2)[C@@H](CO)O1	–	inactive: 7.68%
COCCCN1C(=O)C(CC(=O)NC2CCCC2)CC(C(=O)N(C(C)C)C(C)C)=C1C (centres undefined)	inconclusive [activator, single point]	–
Cc1ccccc1NS(=O)(=O)c1cc2c3c(c1)CC(=O)N3CCC2	inconclusive [activator, partial curve]	–
O=C(O)CC/C(=C\c1ccc(N2CCCC2)c([N+](=O)[O-])c1)c1nc2ccccc2s1	active: 89.1 µM	–
